Results taken from PMC7290719.
No constants are given. Whether binding was seen depends on the method and setting. Binding seen in cells or lysates may run through a third protein. Some binding calls cover weakened binding; strength is not graded here. For some assays here: Where a sequence is shown, tags or fusion partners need not be part of it.

Chains of the proteins cited; added tags and fusions are not shown.
UniProt Q9NSY1: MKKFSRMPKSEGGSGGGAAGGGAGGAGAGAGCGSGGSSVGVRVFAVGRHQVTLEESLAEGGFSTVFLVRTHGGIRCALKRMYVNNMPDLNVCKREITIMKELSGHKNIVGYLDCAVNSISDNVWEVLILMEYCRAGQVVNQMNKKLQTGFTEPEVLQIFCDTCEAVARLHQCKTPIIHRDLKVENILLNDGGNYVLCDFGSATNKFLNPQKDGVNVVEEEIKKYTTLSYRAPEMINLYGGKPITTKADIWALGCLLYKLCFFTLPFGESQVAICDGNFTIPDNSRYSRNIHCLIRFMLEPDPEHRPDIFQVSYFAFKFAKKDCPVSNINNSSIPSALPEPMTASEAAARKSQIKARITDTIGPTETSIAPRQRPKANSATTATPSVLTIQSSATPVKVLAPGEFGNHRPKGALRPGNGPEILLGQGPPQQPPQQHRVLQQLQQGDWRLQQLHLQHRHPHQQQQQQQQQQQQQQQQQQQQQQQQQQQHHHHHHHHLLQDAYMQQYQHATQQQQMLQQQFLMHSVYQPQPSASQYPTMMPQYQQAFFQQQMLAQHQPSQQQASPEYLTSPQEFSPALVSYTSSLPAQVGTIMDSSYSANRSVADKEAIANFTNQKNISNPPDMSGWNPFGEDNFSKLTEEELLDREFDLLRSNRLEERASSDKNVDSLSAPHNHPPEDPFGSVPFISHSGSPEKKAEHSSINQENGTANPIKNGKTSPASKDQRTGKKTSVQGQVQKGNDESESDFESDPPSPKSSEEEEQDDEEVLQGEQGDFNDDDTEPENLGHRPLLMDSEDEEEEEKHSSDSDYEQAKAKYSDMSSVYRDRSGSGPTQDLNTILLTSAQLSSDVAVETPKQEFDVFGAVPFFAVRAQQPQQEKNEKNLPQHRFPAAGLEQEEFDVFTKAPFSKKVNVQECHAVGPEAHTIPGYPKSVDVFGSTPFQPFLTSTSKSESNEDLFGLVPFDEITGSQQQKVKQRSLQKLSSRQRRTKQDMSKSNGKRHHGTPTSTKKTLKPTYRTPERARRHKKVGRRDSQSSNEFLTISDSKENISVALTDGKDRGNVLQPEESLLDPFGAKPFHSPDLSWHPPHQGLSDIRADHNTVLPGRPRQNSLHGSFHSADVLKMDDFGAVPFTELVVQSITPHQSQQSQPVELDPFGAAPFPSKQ
UniProt P78559: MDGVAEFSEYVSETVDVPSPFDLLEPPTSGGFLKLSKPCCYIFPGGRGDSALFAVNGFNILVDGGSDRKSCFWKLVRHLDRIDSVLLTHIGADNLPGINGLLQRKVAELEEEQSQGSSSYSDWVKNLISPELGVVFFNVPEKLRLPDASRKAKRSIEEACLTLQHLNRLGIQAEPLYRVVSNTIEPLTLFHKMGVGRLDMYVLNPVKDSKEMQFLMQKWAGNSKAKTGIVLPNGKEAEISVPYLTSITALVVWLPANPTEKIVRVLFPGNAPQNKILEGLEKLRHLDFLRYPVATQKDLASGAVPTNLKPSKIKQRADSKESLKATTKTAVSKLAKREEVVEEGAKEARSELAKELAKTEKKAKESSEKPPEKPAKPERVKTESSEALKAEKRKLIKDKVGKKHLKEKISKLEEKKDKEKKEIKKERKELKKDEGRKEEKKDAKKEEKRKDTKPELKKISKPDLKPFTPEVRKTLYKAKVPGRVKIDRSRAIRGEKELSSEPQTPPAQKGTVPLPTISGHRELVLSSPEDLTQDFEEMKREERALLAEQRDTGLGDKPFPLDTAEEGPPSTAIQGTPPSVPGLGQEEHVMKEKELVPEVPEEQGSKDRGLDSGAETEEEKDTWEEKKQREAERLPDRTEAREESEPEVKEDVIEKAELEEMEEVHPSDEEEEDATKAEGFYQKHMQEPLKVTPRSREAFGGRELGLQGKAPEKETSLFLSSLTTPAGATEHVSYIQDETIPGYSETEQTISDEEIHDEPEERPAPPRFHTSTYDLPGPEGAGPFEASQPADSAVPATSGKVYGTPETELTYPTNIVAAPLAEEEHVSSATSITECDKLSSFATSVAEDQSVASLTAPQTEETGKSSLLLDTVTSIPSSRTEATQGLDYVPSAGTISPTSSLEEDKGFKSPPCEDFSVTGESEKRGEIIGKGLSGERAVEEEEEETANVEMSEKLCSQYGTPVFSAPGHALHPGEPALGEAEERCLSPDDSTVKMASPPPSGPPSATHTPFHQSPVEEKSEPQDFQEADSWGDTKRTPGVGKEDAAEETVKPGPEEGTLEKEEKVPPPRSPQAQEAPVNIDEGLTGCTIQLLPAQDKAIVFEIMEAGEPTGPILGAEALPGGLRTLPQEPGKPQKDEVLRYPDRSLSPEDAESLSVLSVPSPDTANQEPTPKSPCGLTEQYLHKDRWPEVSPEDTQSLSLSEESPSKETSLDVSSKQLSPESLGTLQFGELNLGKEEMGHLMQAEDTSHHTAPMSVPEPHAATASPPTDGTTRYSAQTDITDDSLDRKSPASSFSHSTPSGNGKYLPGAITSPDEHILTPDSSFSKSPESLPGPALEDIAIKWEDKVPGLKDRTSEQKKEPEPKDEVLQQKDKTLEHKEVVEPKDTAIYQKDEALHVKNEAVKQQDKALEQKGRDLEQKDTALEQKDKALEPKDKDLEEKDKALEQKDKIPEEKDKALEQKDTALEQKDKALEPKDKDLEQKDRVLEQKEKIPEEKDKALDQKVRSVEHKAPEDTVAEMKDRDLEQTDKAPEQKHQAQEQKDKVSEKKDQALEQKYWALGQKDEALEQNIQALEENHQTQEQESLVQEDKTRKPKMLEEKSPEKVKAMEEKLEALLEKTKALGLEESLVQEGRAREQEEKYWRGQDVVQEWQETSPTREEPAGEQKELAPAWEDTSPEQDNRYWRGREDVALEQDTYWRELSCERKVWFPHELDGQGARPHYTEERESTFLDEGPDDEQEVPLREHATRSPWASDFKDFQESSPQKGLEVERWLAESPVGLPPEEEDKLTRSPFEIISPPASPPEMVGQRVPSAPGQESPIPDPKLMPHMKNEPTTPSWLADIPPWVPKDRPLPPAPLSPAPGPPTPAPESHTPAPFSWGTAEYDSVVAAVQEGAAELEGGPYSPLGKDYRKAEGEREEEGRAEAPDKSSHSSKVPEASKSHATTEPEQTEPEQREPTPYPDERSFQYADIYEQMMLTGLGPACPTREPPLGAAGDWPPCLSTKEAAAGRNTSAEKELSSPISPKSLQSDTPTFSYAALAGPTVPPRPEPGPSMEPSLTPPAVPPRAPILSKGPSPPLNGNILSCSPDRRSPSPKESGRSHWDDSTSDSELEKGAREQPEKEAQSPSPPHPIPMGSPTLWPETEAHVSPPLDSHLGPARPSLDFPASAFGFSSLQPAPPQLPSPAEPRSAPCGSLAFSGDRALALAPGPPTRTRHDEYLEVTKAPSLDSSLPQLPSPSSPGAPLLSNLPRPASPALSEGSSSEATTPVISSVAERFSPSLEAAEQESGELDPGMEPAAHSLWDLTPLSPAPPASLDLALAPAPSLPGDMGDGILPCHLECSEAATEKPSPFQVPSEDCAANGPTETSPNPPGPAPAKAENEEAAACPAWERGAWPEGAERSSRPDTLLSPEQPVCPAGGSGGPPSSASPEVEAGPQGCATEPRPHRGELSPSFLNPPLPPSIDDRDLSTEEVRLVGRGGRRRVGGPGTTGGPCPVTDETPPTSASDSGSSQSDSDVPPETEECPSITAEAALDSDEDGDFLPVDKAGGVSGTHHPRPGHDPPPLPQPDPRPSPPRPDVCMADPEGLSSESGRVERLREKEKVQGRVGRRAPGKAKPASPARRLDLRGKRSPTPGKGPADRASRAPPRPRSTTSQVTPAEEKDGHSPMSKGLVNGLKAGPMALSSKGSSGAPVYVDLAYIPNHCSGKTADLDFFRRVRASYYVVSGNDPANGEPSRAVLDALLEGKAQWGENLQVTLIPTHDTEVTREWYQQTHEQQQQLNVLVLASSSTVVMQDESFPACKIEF
UniProt P09874: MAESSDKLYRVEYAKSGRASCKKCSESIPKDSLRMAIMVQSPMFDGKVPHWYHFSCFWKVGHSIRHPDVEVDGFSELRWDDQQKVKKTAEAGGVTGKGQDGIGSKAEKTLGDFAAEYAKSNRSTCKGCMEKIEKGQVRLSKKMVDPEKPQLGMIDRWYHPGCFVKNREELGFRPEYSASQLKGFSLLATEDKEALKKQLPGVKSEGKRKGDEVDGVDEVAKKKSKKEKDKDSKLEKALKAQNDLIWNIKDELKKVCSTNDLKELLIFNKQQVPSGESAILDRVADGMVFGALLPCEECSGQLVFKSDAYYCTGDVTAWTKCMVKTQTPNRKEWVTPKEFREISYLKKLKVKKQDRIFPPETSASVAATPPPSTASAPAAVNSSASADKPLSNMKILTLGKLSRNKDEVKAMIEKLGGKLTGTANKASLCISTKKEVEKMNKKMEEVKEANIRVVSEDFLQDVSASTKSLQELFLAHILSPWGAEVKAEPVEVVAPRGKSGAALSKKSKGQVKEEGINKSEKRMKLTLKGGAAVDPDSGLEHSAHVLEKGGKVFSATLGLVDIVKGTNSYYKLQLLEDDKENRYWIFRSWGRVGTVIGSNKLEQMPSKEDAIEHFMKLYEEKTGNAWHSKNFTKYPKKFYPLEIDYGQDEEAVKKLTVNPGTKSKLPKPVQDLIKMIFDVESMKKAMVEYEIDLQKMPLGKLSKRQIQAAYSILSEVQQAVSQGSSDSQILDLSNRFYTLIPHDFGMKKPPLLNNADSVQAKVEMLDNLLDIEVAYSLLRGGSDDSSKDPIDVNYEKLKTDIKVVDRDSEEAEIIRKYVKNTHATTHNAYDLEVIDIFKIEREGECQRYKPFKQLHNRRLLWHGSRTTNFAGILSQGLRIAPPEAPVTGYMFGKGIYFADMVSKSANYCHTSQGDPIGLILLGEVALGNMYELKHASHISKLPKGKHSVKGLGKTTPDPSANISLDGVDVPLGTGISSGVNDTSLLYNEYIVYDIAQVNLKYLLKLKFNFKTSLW
UniProt P08670: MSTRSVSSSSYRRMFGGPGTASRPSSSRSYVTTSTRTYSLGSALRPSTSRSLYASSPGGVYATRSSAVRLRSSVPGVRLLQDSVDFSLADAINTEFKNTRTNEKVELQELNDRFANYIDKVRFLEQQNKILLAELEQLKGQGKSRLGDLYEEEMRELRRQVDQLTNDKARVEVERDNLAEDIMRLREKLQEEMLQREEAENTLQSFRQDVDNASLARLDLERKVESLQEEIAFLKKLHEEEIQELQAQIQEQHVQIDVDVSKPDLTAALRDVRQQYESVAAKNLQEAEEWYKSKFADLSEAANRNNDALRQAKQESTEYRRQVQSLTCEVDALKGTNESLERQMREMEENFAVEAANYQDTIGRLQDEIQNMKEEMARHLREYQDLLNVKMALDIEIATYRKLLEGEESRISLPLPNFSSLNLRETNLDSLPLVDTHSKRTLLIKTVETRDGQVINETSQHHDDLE

Key:
[1] = molecular target: T1, SHC adaptor protein 3 (SHC3) (human (endogenous in U-87 MG)) (UniProt Q92529); assay: co-IP; anti-SHC3 monoclonal antibody on micromagnetic beads, RIPA lysate of U-87 MG, 5 h at 4 °C; Western blot with specific antibodies; negative control antibody against tetanus toxin
T1 sequence: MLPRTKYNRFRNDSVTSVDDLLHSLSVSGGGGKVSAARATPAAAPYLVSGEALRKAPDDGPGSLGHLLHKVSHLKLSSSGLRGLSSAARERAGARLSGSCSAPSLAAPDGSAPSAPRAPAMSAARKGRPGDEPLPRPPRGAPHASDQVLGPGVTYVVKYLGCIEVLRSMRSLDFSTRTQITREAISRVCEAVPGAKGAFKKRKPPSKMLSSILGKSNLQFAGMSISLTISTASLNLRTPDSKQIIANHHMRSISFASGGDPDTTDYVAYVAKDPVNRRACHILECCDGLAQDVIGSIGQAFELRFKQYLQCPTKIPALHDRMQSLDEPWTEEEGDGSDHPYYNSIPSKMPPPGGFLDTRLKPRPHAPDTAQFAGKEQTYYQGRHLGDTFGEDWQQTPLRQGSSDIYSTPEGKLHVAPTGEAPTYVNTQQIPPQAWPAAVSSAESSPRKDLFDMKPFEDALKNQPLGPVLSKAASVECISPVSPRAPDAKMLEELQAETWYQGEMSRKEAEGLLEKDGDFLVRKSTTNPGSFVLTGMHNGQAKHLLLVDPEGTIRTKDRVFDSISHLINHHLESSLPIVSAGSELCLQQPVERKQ

[2] = molecular target: T2, SH2-eCFP fusion protein (human) (UniProt Q92529); assay: co-IP; anti-eCFP monoclonal antibody (μMACS GFP Isolation Kit) on lysates of U-87 MG transiently transfected with SHC3 domain-eCFP constructs; Western blot for PARP1
T2 sequence: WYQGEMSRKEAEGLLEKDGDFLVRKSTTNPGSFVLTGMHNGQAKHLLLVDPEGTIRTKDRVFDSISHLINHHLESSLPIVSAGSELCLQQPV

[3] = molecular target: T3, p52SHC3 fused to GST expressed in Escherichia coli (human) (UniProt Q92529); assay: pull-down; p52SHC3 fused to GST, expressed in E. coli, on a column; U-87 MG whole cell extracts; only the target purified
T3 sequence: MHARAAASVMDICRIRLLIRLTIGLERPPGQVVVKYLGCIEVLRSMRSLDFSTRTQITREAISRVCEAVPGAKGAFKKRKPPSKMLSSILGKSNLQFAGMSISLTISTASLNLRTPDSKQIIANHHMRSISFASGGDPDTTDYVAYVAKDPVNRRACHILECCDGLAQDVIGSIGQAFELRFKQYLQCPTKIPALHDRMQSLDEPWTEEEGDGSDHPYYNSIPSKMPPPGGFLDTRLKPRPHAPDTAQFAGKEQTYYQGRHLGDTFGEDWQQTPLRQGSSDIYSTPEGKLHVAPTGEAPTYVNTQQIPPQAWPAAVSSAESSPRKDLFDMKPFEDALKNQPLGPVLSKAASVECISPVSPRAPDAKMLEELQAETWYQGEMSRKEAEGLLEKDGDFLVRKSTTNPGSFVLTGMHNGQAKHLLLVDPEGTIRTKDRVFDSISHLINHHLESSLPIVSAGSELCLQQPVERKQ

Substance	binding [1]	binding [2]	binding [3]
BMP-2-inducible protein kinase (BMP2K) (from UniProt Q9NSY1 1-1161)	binds	–	–
microtubule associated protein 1A (MAP1A) (from UniProt P78559 1-2803)	binds	–	–
poly ADP-ribose polymerase 1 (PARP1) (from UniProt P09874 1-1014)	–	no binding	–
vimentin (from UniProt P08670 1-466)	binds	–	binds
